PubChem BioAssay AID463173 (ICCB-Longwood Screening Facility, Harvard Medical School, 2010)
The whole screen tested about 52,000 compounds, of which about 4,300 (8.3%) were called active. Cut-off read from the data, not from the text of the source: active = survival mostly below about 52% (no sharp cut-off); inactive = mostly above about 56%. This is one part of the list.

tested on: DeltatarO mutant; assay: growth inhibition of S. aureus wild type versus tarO mutant, primary screen, teichoic acid synthesis inhibitors, RN4220, OD600 (AID 463173); details: OD600, 18 h, active compounds read low, screened at 18.75 µg/mL (by protocol)

Question: CN(C)CCNC(=O)C1CCN(c2nc3ccccc3[nH]2)CC1 was tested. Which survival did it give?
Answer: inactive: 60%

Question: COc1ccc(NC(=O)Nc2nnc(N3CCCCCC3)s2)cc1 was tested. Which survival did it give?
Answer: inactive: 72%

Question: Which survival does the source give for Cc1c(NC(=O)c2cc([N+](=O)[O-])ccc2N2CCOCC2)cccc1-c1nc2ccccc2o1 here?
Answer: inactive: 50%

Question: Which survival does the source give for Cc1ccc(NC(=O)c2nc(S(C)(=O)=O)ncc2N(Cc2ccccc2)Cc2ccco2)c(C)c1 here?
Answer: inactive: 53%

Question: Which survival does the source give for CSc1nc2sc3c(c2c(=O)n1-c1ccc(C)c(Cl)c1)CCN(C(C)=O)C3 here?
Answer: inactive: 63%

Question: CCC(C)NC(=O)CSc1nc2ccc(C(C)C)cc2cc1C#N (stereo unspecified) was tested. Which survival did it give?
Answer: inactive: 91%

Question: With COC(=O)c1ccc(NC(=O)CCc2c(C)nn(-c3ccc(N4CCCC4)nn3)c2C)cc1 as the compound, how does the survival read?
Answer: inactive: 99%

Question: Which survival does the source give for CCOC(=O)c1cnn(-c2ccc(OC)cc2)c1C1CCN(C(=O)OC(C)(C)C)CC1 here?
Answer: inactive: 39%

Question: Cc1cccc(-c2nc(SCc3ccc(Br)cc3)n3[nH]c(=O)cc3n2)c1 was tested. Which survival did it give?
Answer: inactive: 92%

Question: COc1ccccc1N1CCN(C(=O)CCc2c(C)nn(-c3ccc(N4CCCC4)nn3)c2C)CC1 was tested. Which survival did it give?
Answer: inactive: 67%

Question: For O=C(CN1CCN(Cc2ccccc2)CC1)N1CCCCCC1, which survival is on record?
Answer: inactive: 95%

Question: For CC1CCCCN1c1csc2ccc(F)cc2c1=O (stereo unspecified), which survival is on record?
Answer: inactive: 89%

Question: How did the survival turn out when Cn1nc(C(=O)Nc2cc(F)ccc2F)c2c1-c1ccccc1SC2 was run?
Answer: inactive: 90%

Question: For COc1ccc(-c2cc(C(F)F)n3ncc(C(=O)Nc4cc(C)on4)c3n2)cc1, which survival is on record?
Answer: inactive: 85%

Question: Which survival does the source give for O=C(CSc1ccc(-c2ccccc2)nn1)N1CCCC1 here?
Answer: inactive: 92%

Question: For COc1cc(NC(=O)c2nnn(Cc3ccc(F)cc3)c2N)cc(OC)c1, which survival is on record?
Answer: inactive: 67%

Question: Cc1ccccc1C(=O)N1CCC(c2nc3ccccc3s2)CC1 was tested. Which survival did it give?
Answer: inactive: 75%

Question: Which survival does the source give for CCOc1ccc(CCNC(=O)c2ccc3c(c2)c(C)c(C)n3C)cc1 here?
Answer: inactive: 77%

Question: With COC(=O)c1ccc(NC(=O)CSc2nc(=O)n(Cc3ccco3)c3c2CCC3)cc1 as the compound, how does the survival read?
Answer: inactive: 113%

Question: For COc1cccc(CNc2cccc3cccnc23)c1O, which survival is on record?
Answer: inactive: 97%

Question: COc1cc(C(=O)N(Cc2ccc(C(C)C)cc2)C2CCS(=O)(=O)C2)cc(OC)c1OC (stereo unspecified) was tested. Which survival did it give?
Answer: active: 46%

Question: COC(=O)CSc1nc(-c2ccccc2)cc(C)c1C#N was tested. Which survival did it give?
Answer: inactive: 90%

Question: Cc1cc(NC(=O)CN2C(=O)C(C)(C)c3ccccc32)ccc1Br was tested. Which survival did it give?
Answer: inactive: 88%

Question: With Cc1cccc(OCC(=O)Nc2ccc(S(N)(=O)=O)cc2)c1C as the compound, how does the survival read?
Answer: inactive: 93%

Question: How did the survival turn out when CCN(C(=O)CSc1nc2ccccc2n1CC(=O)Nc1cccc(C#N)c1)c1ccccc1 was run?
Answer: inactive: 122%

Question: For Cc1ccc(CNC(=O)CC2Oc3ccccc3NC2=O)cc1 (stereo unspecified), which survival is on record?
Answer: inactive: 86%

Question: COc1cc(C(=O)N2CCCN(c3nc4cc(C)ccc4cc3C#N)CC2)cc(OC)c1OC was tested. Which survival did it give?
Answer: inactive: 91%

Question: With CCOC(=O)C1CCCN(C(=O)Cn2ncc3c([nH]c4ccccc43)c2=O)C1 (stereo unspecified) as the compound, how does the survival read?
Answer: inactive: 83%

Question: For COC(=O)CC(=O)CSc1nc(C)cc(C(F)(F)F)c1C#N, which survival is on record?
Answer: inactive: 83%

Question: For CCC(=O)N1CCc2cc(Br)cc(S(=O)(=O)NCCc3ccc(OC)c(OC)c3)c21, which survival is on record?
Answer: inactive: 52%

Question: Which survival does the source give for O=C(NCCCc1nc2ccccc2n1Cc1ccccc1Cl)C1CCCCC1 here?
Answer: inactive: 80%

Question: For Cc1[nH]n2c(=O)cc(-c3ccccc3Cl)nc2c1-c1ccccc1, which survival is on record?
Answer: active: -3%

Question: Which survival does the source give for N#CCCSCc1ccc(C(=O)O)o1 here?
Answer: inactive: 112%

Question: CCn1c(SCc2ccccc2)nnc1-c1nonc1NC(C)=O was tested. Which survival did it give?
Answer: inactive: 107%

Question: Cc1ccccc1CNC(=O)c1ccc(NC(=O)c2nsc3ccccc23)cc1 was tested. Which survival did it give?
Answer: inactive: 84%

Question: For CCn1c(=O)cc(SCC(=O)Nc2ccc(C)c(F)c2)c2ccccc21, which survival is on record?
Answer: inactive: 89%

Question: Which survival does the source give for O=C(Cn1c(=O)oc2cc(S(=O)(=O)N3CCCCCC3)ccc21)Nc1cccc(C(F)(F)F)c1 here?
Answer: inactive: 84%

Question: How did the survival turn out when O=C1Cc2cc(S(=O)(=O)N3CCN(c4ccccc4)CC3)ccc2N1 was run?
Answer: inactive: 81%

Question: For Cc1ccccc1Nc1sc(C(=O)c2ccc3c(c2)OCO3)c(N)c1S(=O)(=O)c1ccccc1, which survival is on record?
Answer: inactive: 78%

Question: O=S1(=O)N=C(N(Cc2ccco2)c2ccc(O)cc2)c2ccccc21 was tested. Which survival did it give?
Answer: inactive: 115%

Question: For Cc1ccc(N2CC3=C(C2=O)C(c2ccc(Br)cc2)NC(=O)N3C)cc1 (stereo unspecified), which survival is on record?
Answer: inactive: 74%

Question: How did the survival turn out when CC(C)c1ccc(NS(=O)(=O)c2ccc3[nH]cc(C(=O)NC4CCCC4)c(=O)c3c2)cc1 was run?
Answer: active: 4%

Question: For CCCn1ccc2c(OCC(=O)Nc3ccc(C(F)(F)F)cc3)cccc2c1=O, which survival is on record?
Answer: inactive: 75%

Question: How did the survival turn out when O=C(Nc1ccc(Cl)c(C(F)(F)F)c1)c1cc2nc(-c3ccc4c(c3)OCO4)cc(C(F)(F)F)n2n1 was run?
Answer: inactive: 75%

Question: With CCC(O)c1nc2ccccc2n1CCOc1cc(C)cc(C)c1 (stereo unspecified) as the compound, how does the survival read?
Answer: inactive: 100%

Question: For COc1ccc(NC(=O)CSc2n[nH]c(-c3ccccc3)n2)cc1Cl, which survival is on record?
Answer: inactive: 88%

Question: O=C(Nc1ccccc1F)c1oc2ccccc2c1NC(=O)C12CC3CC(CC(C3)C1)C2 was tested. Which survival did it give?
Answer: inactive: 126%

Question: Which survival does the source give for CCOc1ccccc1C(=O)Nc1cc2c(cc1N1CCCCC1)n(C)c(=O)n2C here?
Answer: inactive: 65%

Question: With N#C/C(=C\c1ccccc1F)c1nc2ccccc2c(=O)[nH]1 as the compound, how does the survival read?
Answer: inactive: 66%

Question: c1ccc(Cc2[nH]nc3ccccc23)cc1 was tested. Which survival did it give?
Answer: inactive: 89%

Question: O=C(O)CCC(=O)Nc1ccc(N2CCCCC2)c(C(=O)O)c1 was tested. Which survival did it give?
Answer: inactive: 103%

Question: For Cc1cc(C)cc(NS(=O)(=O)c2ccc3[nH]cc(C(=O)NCc4ccco4)c(=O)c3c2)c1, which survival is on record?
Answer: inactive: 58%

Question: Which survival does the source give for CC(=O)c1ccc(NC(=O)CN2C(=O)CCc3cc(S(=O)(=O)N4CCC(C)CC4)ccc32)cc1 here?
Answer: inactive: 87%

Question: How did the survival turn out when COc1cccc(NC(=O)CCc2nnc3n(CC(C)C)c(=O)c4ccccc4n23)c1 was run?
Answer: inactive: 99%

Question: With O=C(/C=C/c1ccccc1)Nc1nc(-c2cccs2)ns1 as the compound, how does the survival read?
Answer: inactive: 71%

Question: Which survival does the source give for Cc1ccc(OCC(=O)Nc2ccccc2C(=O)OCc2cc(=O)n3c(C)csc3n2)cc1 here?
Answer: inactive: 89%

Question: For CC(C)OC(=O)c1c(NC(=O)c2cc3nc(-c4ccccc4)cc(C(F)(F)F)n3n2)sc2c1CCCC2, which survival is on record?
Answer: inactive: 92%

Question: Cc1ccc(-c2nnc3ccccc3c2C(=O)Nc2cccc(C(F)(F)F)c2)cc1 was tested. Which survival did it give?
Answer: inactive: 98%

Question: For CSc1nnc2c(n1)OC(c1cccc(O)c1Cl)Nc1ccccc1-2 (stereo unspecified), which survival is on record?
Answer: inactive: 73%

Question: CC1=C(C(=O)Nc2ccc(C)cc2C)C(c2ccc[nH]2)n2ncnc2N1 (stereo unspecified) was tested. Which survival did it give?
Answer: inactive: 89%

Question: With CC(C(=O)NCc1ccc(Cl)cc1)n1ccc2cc(S(=O)(=O)N3CCCC3)ccc21 (stereo unspecified) as the compound, how does the survival read?
Answer: inactive: 66%

Question: How did the survival turn out when N#Cc1cc2c(=O)n3ccccc3nc2n(-c2nnc(SCc3ccccc3F)s2)c1=O was run?
Answer: inactive: 81%

Question: For N#CC1=C(N)SC(N)=C(C#N)C1c1cccs1, which survival is on record?
Answer: inactive: 105%

Question: Which survival does the source give for COC(=O)N1N=C(C)CC1(O)c1ccc(Cl)cc1 (stereo unspecified) here?
Answer: inactive: 87%

Question: For CCOC(=O)c1noc2nc(C)n(CC(=O)Nc3ccc(Br)cc3C)c(=O)c12, which survival is on record?
Answer: inactive: 128%

Question: How did the survival turn out when COc1ccc(OC)c(-n2cnc3cc(C(=O)NCCc4ccccc4)ccc32)c1 was run?
Answer: inactive: 88%

Question: With COC(CNS(=O)(=O)c1ccc(S(=O)(=O)NCc2ccccc2)cc1)OC as the compound, how does the survival read?
Answer: inactive: 71%

Question: How did the survival turn out when Cc1cc(Nc2cccc(C(F)(F)F)c2)nc2ccc(NC(=O)c3cncc(Br)c3)cc12 was run?
Answer: inactive: 118%

Question: Which survival does the source give for Cc1ccc(CN(C(=O)c2ccc([N+](=O)[O-])cc2)c2ccccn2)cc1 here?
Answer: inactive: 52%

Question: Which survival does the source give for CCOc1ccc(-n2c(=O)c3sc4ccccc4c3n(Cc3ccc(F)cc3)c2=O)cc1 here?
Answer: inactive: 77%

Question: With Cc1ccc(NC(=O)c2ccc(CN3CC(=O)N4CCCCC4C3=O)cc2)cc1C (stereo unspecified) as the compound, how does the survival read?
Answer: inactive: 77%

Question: CCc1ccccc1NC(=O)C(=O)NCCc1sc(-c2cccc(C)c2)nc1C was tested. Which survival did it give?
Answer: inactive: 92%

Question: With CCCCC(CC)Cn1c(Oc2ccccc2)nc2c1c(=O)n(C)c(=O)n2C (stereo unspecified) as the compound, how does the survival read?
Answer: active: -15%

Question: CCn1c(=S)sc2nc(C)sc21 was tested. Which survival did it give?
Answer: inactive: 69%

Question: How did the survival turn out when CC(C)c1cnc2c(c1SCC(=O)Nc1cccc([N+](=O)[O-])c1)c(=O)n(C)c(=O)n2C was run?
Answer: inactive: 69%

Question: CCn1c(SCC(=O)Nc2ccc(C)c(C)c2)nnc1-c1nonc1NC(C)=O was tested. Which survival did it give?
Answer: inactive: 110%

Question: For COCCCNc1ncnc2c1nnn2C, which survival is on record?
Answer: inactive: 84%

Question: With Cc1ccc(Cl)cc1N1CCN(S(=O)(=O)c2ccc3c(c2)CC(=O)N3C)CC1 as the compound, how does the survival read?
Answer: inactive: 97%

Question: With Cc1cccc(-c2cc3nc4c(c(N5CCCC5)n3n2)CCCC4)c1 as the compound, how does the survival read?
Answer: inactive: 123%

Question: For COc1cc(-c2nnc(SCC(=O)Nc3cccc(C#N)c3)o2)cc(OC)c1OC, which survival is on record?
Answer: inactive: 110%

Question: Which survival does the source give for CCOC(=O)C1CCCN(S(=O)(=O)c2ccc3c(c2)N(C)C(=O)CC(=O)N3C)C1 (stereo unspecified) here?
Answer: inactive: 106%

Question: How did the survival turn out when CCc1ccc(CNC(=O)c2cnc3sc(N(CC)CC)nn3c2=O)cc1 was run?
Answer: inactive: 67%

Question: For COc1ccc(CCNC(=O)CN2C(=O)COc3ccc(S(=O)(=O)N4CCCCCC4)cc32)cc1OC, which survival is on record?
Answer: inactive: 78%

Question: For COCCCNC(=O)Cn1c(=O)n(-c2ccc(Cl)cc2)c(=O)c2c3c(sc21)CCCCC3, which survival is on record?
Answer: inactive: 87%

Question: With O=S(=O)(c1cccc(Cl)c1)c1nnn2c1nc(NC1CCCC1)c1sccc12 as the compound, how does the survival read?
Answer: inactive: 62%

Question: Which survival does the source give for CCc1ccc(CNC(=O)c2cc3c(s2)-c2ccccc2OC3)cc1 here?
Answer: inactive: 61%

Question: How did the survival turn out when Cc1nc(N2CCCC2)ncc1C(=O)NCc1ccccc1Cl was run?
Answer: inactive: 95%

Question: How did the survival turn out when CCc1nnc2n1N(C(C)=O)C(c1ccc(C(C)(C)C)cc1)=C(C(C)=O)S2 was run?
Answer: inactive: 96%

Question: With COc1cc(NC(=O)CSc2nc3nc(C)c(Cc4ccccc4)c(C)n3n2)cc(OC)c1OC as the compound, how does the survival read?
Answer: inactive: 80%

Question: For COC(=O)c1ccc(NC(=O)C2CCN(S(=O)(=O)c3ccc4c(c3)CCCN4C(C)=O)CC2)cc1, which survival is on record?
Answer: inactive: 99%

Question: For COC(=O)C1CCCc2c1[nH]c1ccc(Cl)cc21 (stereo unspecified), which survival is on record?
Answer: inactive: 60%
